Assay results as given in PubChem BioAssay AID602275 (The Scripps Research Institute Molecular Screening Center, 2012).
For part of its entries the source gives two or more results. This list holds those alone. No rule for the calls is given here. An entry can have further records. Results that share an entry are repeated measurements (runs, samples, wells, individuals or studies). Records carry a tag for their origin. Letters count within one entry.

Legend:
NS3h 2a[JFH1] = test: NS3h unwinding inhibitors, genotype 1b and 2a – biochemical, real-time fluorescence, strains con1 and JFH1, set 3, selectivity assay for HCV NS3 helicase inhibitor project, late-stage follow-up (AID 602275); settings: Recombinant NS3h
NS3h 1b[con1] = test: as above; settings: Recombinant NS3h

Cc1ccc2nc(-c3ccc4nc(-c5ccc(N)cc5)sc4c3)sc2c1S(=O)(=O)O
IC50 (NS3h 2a[JFH1]): 7.3 µM [sample A] and inactive [sample B] | IC50 (NS3h 1b[con1]): 5.6 µM [sample A] and 45.3 µM [sample B] and inactive [sample C]
